Reference: PubChem BioAssay AID493208 (National Center for Advancing Translational Sciences (NCATS), 2011)
About 340 (0.77%) of roughly 44,000 compounds were called active. Inconclusive results (about 5%) are left out. Calls come from the whole dose curve; as a rule, active = well fitted inhibition curve with a large enough effect; inconclusive = small, poorly fitted or top-dose-only effect; inactive = flat fitted curve, though single readings scatter. The list shows a part of the results.

test: Acumen qHTS Assay for Inhibitors of the mTORC1 Signaling Pathway in MEF (Tsc2-/-, p53-/-) Cells: Sytravon; details: phospho-rpS6 immunofluorescence/PI, 24 h; series mostly up to 38.3 µM; activity change, negative = inhibition: at the top concentration;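 note: plate controls were DMSO for no effect and rapamycin for full effect; nearly all actives have a fitted effect of over 50% in size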
Summary of the method: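 Tsc2-/-, p53-/- mouse embryonic fibroblasts (empty-vector line) exposed to compound 24 hrs at 37 C, fixed, immunostained for phospho-rpS6 and counterstained with propidium iodide. Acumen laser scanning gives % positive cells from Alexa 488/PI ratio, thresholded using 7.5 nM rapamycin; PI count gives viability.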

Compound | activity change, negative = inhibition
CCC(=O)N1CCc2cc(CNC(=O)c3ccc(OC)cc3)ccc21 | inactive: -5.1%
CCn1nc(-c2ccccc2)c(-c2ccccc2)c(C(=O)Nc2nc(C)c(C(C)=O)s2)c1=O | inactive: 1.39%
COc1ccc(-c2nc(CN3CCC(C(=O)NCCc4ccccc4)CC3)c(C)o2)cc1OC | inactive: -1.22%
CCCCn1cc(S(=O)(=O)c2ccc(C)c(C)c2)c(=O)c2cc(F)c(N(CC)CC)cc21 | inactive: -2.36%
Cc1ccc(NC(=O)CSc2nc(=O)n(Cc3ccco3)c3c2CCC3)cc1F | inactive: -5.34%
Cn1c(=O)c(=O)n(C)c2cc(N3CCCC3)c(NC(=O)c3ccccc3F)cc21 | inactive: -3.11%
O=C(Nc1sc2c(c1C(=O)Nc1cccc(Cl)c1)CCCC2)c1cccs1 | inactive: 11.2%
Cc1ccc2c(c1)-c1onc(C(=O)N3CCN(c4cc(Cl)ccc4C)CC3)c1CO2 | inactive: 9.76%
COC(=O)c1ccccc1NC(=O)c1cc(CN2CCCC2)on1 | inactive: -5.11%
CCC(=O)N1CCc2cc(CNC(=O)Cc3ccc(F)cc3)ccc21 | inactive: -4.05%
CCOc1ccc(-c2nnc(SCC(=O)Nc3ccc(C)cc3Cl)o2)cc1 | inactive: -2.45%
CC1Cc2ccccc2N1S(=O)(=O)c1nnc(NC(=O)c2cccc(F)c2)s1 (configuration not stated) | inactive: 8.66%
CCn1nnc2cc(C(=O)Nc3ccc(C)c(Cl)c3)ccc21 | inactive: -21.6%
Cc1c(C(=O)N2CCC(C)CC2)c(S(=O)(=O)Nc2cccc(C(F)(F)F)c2)c(C)n1C | inactive: 0%
CCOC(=O)c1c(NC(=O)COc2ccc(C)cc2C(C)(C)C)sc2c1CCC(C)C2 (configuration not stated) | inactive: -1.63%
CC(=O)c1ccc(N2CCN(S(=O)(=O)c3cc(-c4noc(C)n4)ccc3C)CC2)cc1 | inactive: -25.2%
Cc1ccc(Cn2c(CNC(=O)Cc3cccc(C)c3)nc3cccnc32)cc1 | inactive: 1.57%
COc1ccc(CNC(=O)Cn2c(=O)ccc3cc(S(=O)(=O)N4CCCC4)ccc32)cc1 | inactive: 0.107%
Cc1nn(S(=O)(=O)c2ccc(C(C)(C)C)cc2)c(C)c1S(=O)(=O)N1CCC(C)CC1 | inactive: 1.55%
COc1ccc2[nH]cc(CCNC(=O)c3cnn(-c4ccc(C)cc4)c3C3CCN(C(=O)OC(C)(C)C)CC3)c2c1 | inactive: -4.79%
CC(=O)Nc1ccc(NC(=O)C2(c3cccs3)CCOCC2)cc1 | inactive: -1.44%

Compound | activity change, negative = inhibition
COCCN1C(=O)c2oc3ccc(C)cc3c(=O)c2C12C(=O)N(C)c1ccccc12 (configuration not stated) | inactive: -1.47%
COC(=O)c1cc2oc3ccccc3c2n1Cc1nc(-c2cccc(C)c2)oc1C | inactive: 7.08%
CC(C)N(Cc1ccccc1)C(=O)C1CCCN(c2ncnc3onc(-c4ccc(F)cc4)c23)C1 (configuration not stated) | inactive: -3.84%
COCC(=O)Nc1cccc(-c2nc3cccnc3s2)c1 | inactive: -16.6%
COc1ccccc1CNC(=O)c1cnc(SC)nc1C | inactive: -15.3%
Cc1cc2n(n1)CCC(=O)N2Cc1ccc(C(=O)Nc2ccc(F)cc2F)cc1 | inactive: -18.5%
CCOC(=O)c1ccc(N2C(=O)c3[nH]nc(-c4ccc(OCC)cc4)c3C2c2cccs2)cc1 (configuration not stated) | inactive: -7.62%
CCOC(=O)c1ccc(NC(=O)CC2Nc3ccccc3NC2=O)cc1 (configuration not stated) | inactive: -10%
Cc1cc(-c2ccc(S(=O)(=O)N3CCN(c4ccc(Cl)cc4)CC3)s2)on1 | inactive: -1.99%
COc1ccc(-c2nc3scc(CCNC(=O)c4cccc(Br)c4)n3n2)cc1 | inactive: 0.825%
COc1ccc(NC(=O)c2sc3nc4c(c(-c5ccc(OC)cc5)c3c2N)C(=O)CC(C)(C)C4)cc1 | inactive: 2.35%
O=C(Nc1cc(-c2nc3cc(Cl)ccc3o2)ccc1Cl)c1cc([N+](=O)[O-])ccc1N1CCOCC1 | inactive: 3.19%
Cc1ccc(CNCc2cccn2-c2nnc(N3CCCC3)s2)cc1 | inactive: -4.23%
O=C(c1ccccc1Cl)N1CCCCC1CCN1CCOCC1 (configuration not stated) | inactive: 1.66%
CCOc1cccc2c1Oc1nc(-c3ccccc3)nc(SCC(=O)Nc3ccc(F)cc3)c1C2 | inactive: 1.86%
Clc1ccccc1-c1nnc(SCc2nc(-c3ccccc3)no2)n1-c1ccccc1 | inactive: -14.9%
O=C(NCCc1ccc(Cl)cc1)c1ccc(CSCc2ccc(Cl)cc2)o1 | inactive: 8.11%
CCCC(=O)n1nc(-c2cccnc2)nc1NCc1ccccc1 | inactive: 4.53%
CCc1ccccc1NC(=O)Cn1c(=O)n(CCc2ccccc2)c(=O)c2ccccc21 | inactive: -5.4%
COc1ccc(N2CCN(C(=O)Nc3ccccc3Cl)CC2)cc1 | inactive: -6.99%
COc1ccc(Cn2c(CCC(=O)Nc3ccc(OC)c(Cl)c3)nc3cccnc32)cc1 | inactive: -14.6%

Compound | activity change, negative = inhibition
COc1ccc(NS(=O)(=O)c2c(C)nc3scc(C)n3c2=O)cc1 | inactive: -17.7%
O=C(Nc1ccc2nc(SCC(=O)N3CCOCC3)sc2c1)c1cccc(F)c1 | inactive: -0.298%
CCCCNC(=O)CCSc1nc(-c2ccc3c(c2)OCO3)cc(C(F)(F)F)n1 | inactive: 0.747%
CCOC(=O)N1CCN(S(=O)(=O)N2CCCC(C(=O)NCc3ccc(OC)cc3OC)C2)CC1 (configuration not stated) | inactive: 15.2%
O=c1oc2ccc(Cl)cc2cc1-c1cn2c(n1)sc1ccccc12 | inactive: -7.43%
COc1cccc(NC(=O)CSC2=Nc3ccccc3C3=NC(CC(=O)NCc4ccccc4OC)C(=O)N23)c1 (configuration not stated) | inactive: -1.02%
COC(=O)c1scc(-c2ccccc2)c1S(=O)(=O)Nc1ccc(C)c(Cl)c1 | inactive: -0.557%
CCOc1ccc(NC(=O)c2c(NCc3cccs3)sc3c2CCCCC3)cc1 | inactive: -2.71%
COc1ccc(C2C=C(c3ccccc3)Nc3nc(NC(=O)/C=C/c4ccccc4OC)nn32)cc1 (configuration not stated) | inactive: -0.343%
Cc1ccnc2nc(NC(=O)c3ccccc3Cl)nn12 | inactive: -1.35%
Cc1cccc(N(CC(=O)N(C)Cc2ccccc2)S(=O)(=O)c2ccccc2)c1C | inactive: -3.79%
CCC(=O)N1CCc2cc(Br)cc(S(=O)(=O)N3CCCC(C(=O)Nc4ccc(OC)cc4OC)C3)c21 (configuration not stated) | inactive: -0.804%
CCc1ccc(S(=O)(=O)c2nnn3c2nc(NC(C)C)c2cc(Cl)ccc23)cc1 | inactive: -4.43%
CC12CN3CC(c4ccccc4)(CN(C1)C3c1ccc(Cl)cc1)C2=O (configuration not stated) | inactive: -3.3%
CC(=O)c1cc(-c2ccccc2)n(CCC(=O)NC2CCCCC2)c1C | inactive: -0.691%
COc1ccccc1CNC(=O)c1ccc(CS(=O)c2ccccc2Cl)o1 (configuration not stated) | inactive: -3.37%
COc1ccc(NC(=O)C(=O)NCc2ccco2)c(OC)c1 | inactive: 7.08%
COc1ccc(N2CCN(c3oc(/C=C/c4ccccc4OC)nc3C#N)CC2)cc1 | inactive: 2.66%
CC(C)Oc1ccc(CNC(=O)c2cccc(NC(=O)c3nsc4ccccc34)c2)cc1 | inactive: -8.76%
Cc1cc(C)cc(NC(=O)N2CCC(N3CCN(Cc4ccccc4)C(=O)C3=O)CC2)c1 | inactive: -3.16%
